Measured values as given in PubChem BioAssay (NCI).
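Grown in 96-well plates, cells were treated for 48 hours with each compound at five concentrations. Insufficient inhibition: endpoint recorded as highest concentration tested. At the GI50, growth is halved. The concentration for full growth arrest is given as TGI.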

System: NCI-H322M lung
Assay: inhibition of tumour cell growth, NCI panel, 48 h

Row | Compound | GI50 | TGI
1 | CCC(CC)N1C(=O)/C(=c2\sc3n(c2=O)C2C(NN=3)N(CC)C(=O)N2CC)c2ccccc21 (centres undefined) | 10.4 µM | 69.5 µM
2 | Cc1cc(F)cc(NS(=O)(=O)c2ccc(-c3cnc(C4CC4)o3)cc2)c1 | 0.883 µM | 22.2 µM
